Laboratory results from article PMC9866381.
These are yes or no findings as the source states them, for the method shown. Binding seen in cells or lysates may run through a third protein. Some entries that bind do so weakly or less than the wild type.

The chains behind the UniProt entries cited, without tags or fusion partners.
UniProt P19785: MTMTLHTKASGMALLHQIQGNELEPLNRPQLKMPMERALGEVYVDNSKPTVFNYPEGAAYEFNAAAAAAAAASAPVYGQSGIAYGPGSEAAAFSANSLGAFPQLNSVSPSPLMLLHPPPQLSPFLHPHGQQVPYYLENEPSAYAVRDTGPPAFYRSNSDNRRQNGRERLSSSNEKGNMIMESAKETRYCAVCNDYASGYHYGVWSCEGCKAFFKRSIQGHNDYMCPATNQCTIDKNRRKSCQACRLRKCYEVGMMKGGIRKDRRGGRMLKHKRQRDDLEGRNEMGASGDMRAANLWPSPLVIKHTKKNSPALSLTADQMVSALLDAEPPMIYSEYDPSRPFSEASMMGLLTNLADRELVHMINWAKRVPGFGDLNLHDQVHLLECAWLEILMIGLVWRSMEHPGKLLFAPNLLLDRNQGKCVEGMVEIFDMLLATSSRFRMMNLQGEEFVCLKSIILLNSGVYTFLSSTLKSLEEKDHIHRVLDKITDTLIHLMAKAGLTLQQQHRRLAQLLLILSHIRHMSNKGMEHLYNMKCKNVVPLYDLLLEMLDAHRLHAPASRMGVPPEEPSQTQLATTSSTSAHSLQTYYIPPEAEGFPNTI
UniProt P70168: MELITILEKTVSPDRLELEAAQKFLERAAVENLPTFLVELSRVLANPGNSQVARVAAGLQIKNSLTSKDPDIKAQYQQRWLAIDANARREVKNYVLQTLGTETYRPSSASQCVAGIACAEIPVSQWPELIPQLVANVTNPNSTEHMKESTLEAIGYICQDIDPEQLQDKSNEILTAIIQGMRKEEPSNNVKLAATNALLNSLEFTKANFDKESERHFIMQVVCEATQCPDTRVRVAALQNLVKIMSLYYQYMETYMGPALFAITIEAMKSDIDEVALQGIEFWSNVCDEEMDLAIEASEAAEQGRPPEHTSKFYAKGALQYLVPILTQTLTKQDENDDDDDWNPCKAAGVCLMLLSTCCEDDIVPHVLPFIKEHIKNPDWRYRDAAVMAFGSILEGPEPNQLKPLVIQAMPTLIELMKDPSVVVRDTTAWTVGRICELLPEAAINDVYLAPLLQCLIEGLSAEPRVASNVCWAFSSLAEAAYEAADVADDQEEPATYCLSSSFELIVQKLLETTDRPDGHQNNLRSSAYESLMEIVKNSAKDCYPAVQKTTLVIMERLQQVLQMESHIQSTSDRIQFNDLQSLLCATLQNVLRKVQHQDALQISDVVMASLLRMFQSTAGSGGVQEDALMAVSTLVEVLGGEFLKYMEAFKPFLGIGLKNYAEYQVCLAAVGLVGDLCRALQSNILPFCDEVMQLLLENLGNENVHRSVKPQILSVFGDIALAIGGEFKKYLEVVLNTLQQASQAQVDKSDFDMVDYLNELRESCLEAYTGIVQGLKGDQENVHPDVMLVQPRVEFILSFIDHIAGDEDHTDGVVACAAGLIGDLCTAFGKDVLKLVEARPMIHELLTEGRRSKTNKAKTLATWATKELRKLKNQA
UniProt P37238: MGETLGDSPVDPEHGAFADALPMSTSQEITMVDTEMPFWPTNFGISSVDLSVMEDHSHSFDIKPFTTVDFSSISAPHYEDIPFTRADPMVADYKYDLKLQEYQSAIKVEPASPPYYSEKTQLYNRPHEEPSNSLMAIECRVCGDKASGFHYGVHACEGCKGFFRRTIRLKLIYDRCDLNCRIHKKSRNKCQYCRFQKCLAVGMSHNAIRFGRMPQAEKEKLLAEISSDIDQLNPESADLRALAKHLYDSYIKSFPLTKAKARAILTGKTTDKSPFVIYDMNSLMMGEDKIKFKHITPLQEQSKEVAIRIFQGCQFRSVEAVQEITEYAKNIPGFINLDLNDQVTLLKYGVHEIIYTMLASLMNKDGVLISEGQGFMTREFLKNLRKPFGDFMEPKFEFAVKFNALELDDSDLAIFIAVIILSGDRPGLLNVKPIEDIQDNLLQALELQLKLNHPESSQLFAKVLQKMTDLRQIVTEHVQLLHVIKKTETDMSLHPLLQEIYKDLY
UniProt P19091: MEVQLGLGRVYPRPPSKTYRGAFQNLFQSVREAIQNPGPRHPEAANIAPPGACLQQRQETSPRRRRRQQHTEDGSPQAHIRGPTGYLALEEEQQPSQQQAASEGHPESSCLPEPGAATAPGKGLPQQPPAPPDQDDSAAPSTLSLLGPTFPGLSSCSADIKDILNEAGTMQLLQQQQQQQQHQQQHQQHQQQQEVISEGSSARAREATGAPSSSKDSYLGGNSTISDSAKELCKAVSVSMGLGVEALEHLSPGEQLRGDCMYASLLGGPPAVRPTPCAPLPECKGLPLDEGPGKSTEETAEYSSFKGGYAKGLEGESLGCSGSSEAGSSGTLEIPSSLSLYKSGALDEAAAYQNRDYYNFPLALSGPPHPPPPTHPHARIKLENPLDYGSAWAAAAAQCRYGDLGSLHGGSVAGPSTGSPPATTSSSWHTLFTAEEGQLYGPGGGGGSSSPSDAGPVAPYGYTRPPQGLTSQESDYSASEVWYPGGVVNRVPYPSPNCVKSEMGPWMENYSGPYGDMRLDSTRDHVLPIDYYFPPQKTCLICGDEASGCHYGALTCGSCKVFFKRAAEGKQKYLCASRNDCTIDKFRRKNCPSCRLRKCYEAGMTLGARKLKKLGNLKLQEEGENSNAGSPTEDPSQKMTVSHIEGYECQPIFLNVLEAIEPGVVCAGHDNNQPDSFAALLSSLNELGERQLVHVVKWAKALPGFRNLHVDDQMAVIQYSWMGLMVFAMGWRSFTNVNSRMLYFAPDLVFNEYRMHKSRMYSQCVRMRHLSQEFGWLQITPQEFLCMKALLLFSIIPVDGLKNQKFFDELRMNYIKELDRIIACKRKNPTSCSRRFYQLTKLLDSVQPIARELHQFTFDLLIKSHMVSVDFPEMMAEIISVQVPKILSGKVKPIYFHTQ
UniProt P63017: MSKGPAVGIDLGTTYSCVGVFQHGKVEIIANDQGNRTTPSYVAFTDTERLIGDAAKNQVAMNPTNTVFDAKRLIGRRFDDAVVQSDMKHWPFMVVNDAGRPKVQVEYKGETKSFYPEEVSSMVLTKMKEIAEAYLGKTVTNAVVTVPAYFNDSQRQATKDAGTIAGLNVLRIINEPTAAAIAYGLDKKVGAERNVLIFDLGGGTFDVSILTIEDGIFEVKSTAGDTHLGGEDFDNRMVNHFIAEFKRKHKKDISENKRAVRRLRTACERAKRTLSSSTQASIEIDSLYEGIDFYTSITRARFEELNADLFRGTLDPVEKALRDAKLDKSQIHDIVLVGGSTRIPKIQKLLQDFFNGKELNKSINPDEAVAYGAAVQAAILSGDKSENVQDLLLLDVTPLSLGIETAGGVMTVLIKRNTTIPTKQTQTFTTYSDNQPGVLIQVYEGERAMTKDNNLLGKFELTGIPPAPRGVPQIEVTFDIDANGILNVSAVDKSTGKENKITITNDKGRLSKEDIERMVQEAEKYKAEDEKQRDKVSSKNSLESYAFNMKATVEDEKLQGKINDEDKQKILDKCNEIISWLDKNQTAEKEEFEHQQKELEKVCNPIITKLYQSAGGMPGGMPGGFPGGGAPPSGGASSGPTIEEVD
UniProt P49312: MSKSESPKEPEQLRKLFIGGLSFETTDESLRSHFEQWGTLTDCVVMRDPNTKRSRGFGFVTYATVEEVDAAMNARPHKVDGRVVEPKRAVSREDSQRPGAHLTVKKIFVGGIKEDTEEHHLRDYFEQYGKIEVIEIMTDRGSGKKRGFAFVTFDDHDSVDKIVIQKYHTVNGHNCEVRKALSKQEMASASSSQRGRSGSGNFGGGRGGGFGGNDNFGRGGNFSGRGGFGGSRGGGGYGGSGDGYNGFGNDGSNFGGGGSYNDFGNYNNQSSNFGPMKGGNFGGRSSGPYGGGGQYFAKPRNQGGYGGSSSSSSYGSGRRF
UniProt O88569: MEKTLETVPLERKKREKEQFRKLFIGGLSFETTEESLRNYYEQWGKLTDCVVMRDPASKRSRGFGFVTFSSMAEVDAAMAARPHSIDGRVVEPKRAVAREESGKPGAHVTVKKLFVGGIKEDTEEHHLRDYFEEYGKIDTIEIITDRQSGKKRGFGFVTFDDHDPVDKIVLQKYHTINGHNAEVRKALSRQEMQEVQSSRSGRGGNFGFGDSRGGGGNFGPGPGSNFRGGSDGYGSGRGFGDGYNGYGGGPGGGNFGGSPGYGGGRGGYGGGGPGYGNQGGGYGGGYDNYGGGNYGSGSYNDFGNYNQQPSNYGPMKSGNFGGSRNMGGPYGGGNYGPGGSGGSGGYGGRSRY
UniProt Q8BG05: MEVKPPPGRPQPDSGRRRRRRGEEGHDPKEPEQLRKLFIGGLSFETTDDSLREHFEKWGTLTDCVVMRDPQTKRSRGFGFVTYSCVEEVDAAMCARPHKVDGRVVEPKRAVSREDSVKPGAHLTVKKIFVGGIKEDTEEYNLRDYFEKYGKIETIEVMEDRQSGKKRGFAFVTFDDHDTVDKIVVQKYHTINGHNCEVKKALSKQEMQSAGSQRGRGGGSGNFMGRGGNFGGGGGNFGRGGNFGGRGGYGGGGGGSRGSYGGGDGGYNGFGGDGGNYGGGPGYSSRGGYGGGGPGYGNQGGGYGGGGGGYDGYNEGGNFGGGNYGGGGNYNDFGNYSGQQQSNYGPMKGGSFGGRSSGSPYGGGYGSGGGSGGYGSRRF
UniProt P46096: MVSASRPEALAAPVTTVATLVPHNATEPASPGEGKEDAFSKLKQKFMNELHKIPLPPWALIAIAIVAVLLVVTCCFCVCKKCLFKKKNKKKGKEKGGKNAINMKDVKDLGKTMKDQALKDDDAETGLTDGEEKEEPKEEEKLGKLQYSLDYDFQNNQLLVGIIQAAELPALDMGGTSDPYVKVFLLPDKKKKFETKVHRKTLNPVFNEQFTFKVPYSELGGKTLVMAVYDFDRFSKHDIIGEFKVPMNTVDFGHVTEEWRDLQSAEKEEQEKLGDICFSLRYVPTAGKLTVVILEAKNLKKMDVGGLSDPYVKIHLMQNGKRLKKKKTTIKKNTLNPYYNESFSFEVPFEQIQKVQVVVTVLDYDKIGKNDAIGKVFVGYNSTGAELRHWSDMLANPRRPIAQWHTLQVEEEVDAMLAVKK

Assays:
[1] = target: T1, DNA topoisomerase I, endogenous (mouse (endogenous in cultured cortical neurons)) (UniProt Q04750); experiment: proximity ligation
T1 sequence: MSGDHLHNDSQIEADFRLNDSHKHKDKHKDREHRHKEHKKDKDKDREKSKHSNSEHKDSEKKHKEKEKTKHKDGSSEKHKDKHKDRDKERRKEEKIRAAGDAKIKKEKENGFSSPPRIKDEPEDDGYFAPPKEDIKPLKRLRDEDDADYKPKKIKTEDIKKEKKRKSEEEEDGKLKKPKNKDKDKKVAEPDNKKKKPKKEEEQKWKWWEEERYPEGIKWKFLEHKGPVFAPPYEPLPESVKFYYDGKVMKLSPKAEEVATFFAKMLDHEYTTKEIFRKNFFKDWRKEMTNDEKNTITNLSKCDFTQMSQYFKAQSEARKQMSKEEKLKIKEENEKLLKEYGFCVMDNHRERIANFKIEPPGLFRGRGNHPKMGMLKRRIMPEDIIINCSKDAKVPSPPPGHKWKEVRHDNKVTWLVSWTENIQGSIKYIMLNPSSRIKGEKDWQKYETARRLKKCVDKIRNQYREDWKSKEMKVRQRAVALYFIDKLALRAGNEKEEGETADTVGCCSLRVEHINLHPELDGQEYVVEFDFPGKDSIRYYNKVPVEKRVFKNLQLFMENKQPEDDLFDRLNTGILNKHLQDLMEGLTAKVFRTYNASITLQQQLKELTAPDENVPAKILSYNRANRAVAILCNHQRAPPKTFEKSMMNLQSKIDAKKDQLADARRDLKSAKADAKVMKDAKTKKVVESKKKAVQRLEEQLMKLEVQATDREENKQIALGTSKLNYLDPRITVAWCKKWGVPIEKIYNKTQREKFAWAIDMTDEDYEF

[2] = target: estrogen receptor α, endogenous (mouse (endogenous in cultured cortical neurons)) (UniProt P19785); experiment: proximity ligation
[3] = target: importin β1, endogenous (mouse (endogenous in cultured cortical neurons)) (UniProt P70168); experiment: proximity ligation
[4] = target: T2, nucleoporin 93 kDa, endogenous (mouse (endogenous in cultured cortical neurons)) (UniProt Q8BJ71); experiment: proximity ligation
T2 sequence: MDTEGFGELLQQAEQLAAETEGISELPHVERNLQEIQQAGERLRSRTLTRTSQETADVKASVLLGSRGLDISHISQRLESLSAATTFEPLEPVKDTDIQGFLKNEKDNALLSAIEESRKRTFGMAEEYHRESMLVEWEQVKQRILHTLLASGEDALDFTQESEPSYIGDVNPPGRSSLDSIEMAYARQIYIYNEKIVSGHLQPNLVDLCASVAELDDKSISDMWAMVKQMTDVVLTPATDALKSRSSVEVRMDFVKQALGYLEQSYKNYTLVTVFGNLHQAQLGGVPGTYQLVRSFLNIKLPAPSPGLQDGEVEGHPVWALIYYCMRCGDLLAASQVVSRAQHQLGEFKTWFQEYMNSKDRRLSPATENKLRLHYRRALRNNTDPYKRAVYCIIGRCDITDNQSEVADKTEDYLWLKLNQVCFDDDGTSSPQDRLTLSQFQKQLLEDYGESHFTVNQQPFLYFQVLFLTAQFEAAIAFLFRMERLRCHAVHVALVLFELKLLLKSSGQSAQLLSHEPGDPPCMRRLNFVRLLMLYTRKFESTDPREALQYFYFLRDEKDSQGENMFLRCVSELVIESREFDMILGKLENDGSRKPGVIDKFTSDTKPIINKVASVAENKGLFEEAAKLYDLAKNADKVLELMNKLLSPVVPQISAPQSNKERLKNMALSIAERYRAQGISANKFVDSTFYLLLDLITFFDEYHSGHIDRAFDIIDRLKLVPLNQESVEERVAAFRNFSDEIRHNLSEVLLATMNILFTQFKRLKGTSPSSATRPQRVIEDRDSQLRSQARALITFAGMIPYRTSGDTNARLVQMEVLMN

[5] = target: peroxisome proliferator-activated receptor γ, endogenous (mouse (endogenous in cultured cortical neurons)) (UniProt P37238); experiment: proximity ligation
[6] = target: T1, DNA topoisomerase I, endogenous (mouse (endogenous in cultured cortical neurons)); experiment: proximity ligation; cultured mouse cortical neurons treated with vehicle DMSO or 10 µM DAPT (γ-secretase inhibitor), fixed; L1 antibody C-2 or ab12399 with an antibody against the partner; red dots per nucleus
[7] = target: androgen receptor, endogenous (mouse (endogenous in cultured cortical neurons)) (UniProt P19091); experiment: as above
[8] = target: estrogen receptor α, endogenous (mouse (endogenous in cultured cortical neurons)) (UniProt P19785); experiment: as above
[9] = target: heat shock cognate protein 71 kDa, endogenous (mouse (endogenous in cultured cortical neurons)) (UniProt P63017); experiment: as above
[10] = target: heterogeneous nuclear ribonucleoprotein A1, endogenous (mouse (endogenous in cultured cortical neurons)) (UniProt P49312); experiment: as above
[11] = target: heterogeneous nuclear ribonucleoprotein A2/B1, endogenous (mouse (endogenous in cultured cortical neurons)) (UniProt O88569); experiment: as above
[12] = target: heterogeneous nuclear ribonucleoprotein A3, endogenous (mouse (endogenous in cultured cortical neurons)) (UniProt Q8BG05); experiment: as above
[13] = target: importin β1, endogenous (mouse (endogenous in cultured cortical neurons)) (UniProt P70168); experiment: as above
[14] = target: T3, non-POU domain containing octamer-binding protein, endogenous (mouse (endogenous in cultured cortical neurons)) (UniProt Q99K48); experiment: as above
T3 sequence: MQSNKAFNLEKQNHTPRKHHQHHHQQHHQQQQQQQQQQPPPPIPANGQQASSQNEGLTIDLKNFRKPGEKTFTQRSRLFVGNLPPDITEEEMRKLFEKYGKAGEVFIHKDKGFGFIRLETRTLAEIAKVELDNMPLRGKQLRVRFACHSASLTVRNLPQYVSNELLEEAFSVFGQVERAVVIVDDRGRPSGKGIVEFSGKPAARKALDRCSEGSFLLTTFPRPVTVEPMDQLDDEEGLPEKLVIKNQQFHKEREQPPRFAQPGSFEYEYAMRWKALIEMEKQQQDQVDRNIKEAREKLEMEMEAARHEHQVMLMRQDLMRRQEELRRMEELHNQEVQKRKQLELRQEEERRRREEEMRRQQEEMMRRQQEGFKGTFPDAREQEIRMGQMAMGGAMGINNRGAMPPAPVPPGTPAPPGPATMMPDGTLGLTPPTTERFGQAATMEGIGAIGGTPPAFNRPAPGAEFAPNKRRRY

[15] = target: T2, nucleoporin 93 kDa, endogenous (mouse (endogenous in cultured cortical neurons)); experiment: as above
[16] = target: T4, paraspeckle component 1, endogenous (mouse (endogenous in cultured cortical neurons)) (UniProt Q8R326); experiment: as above
T4 sequence: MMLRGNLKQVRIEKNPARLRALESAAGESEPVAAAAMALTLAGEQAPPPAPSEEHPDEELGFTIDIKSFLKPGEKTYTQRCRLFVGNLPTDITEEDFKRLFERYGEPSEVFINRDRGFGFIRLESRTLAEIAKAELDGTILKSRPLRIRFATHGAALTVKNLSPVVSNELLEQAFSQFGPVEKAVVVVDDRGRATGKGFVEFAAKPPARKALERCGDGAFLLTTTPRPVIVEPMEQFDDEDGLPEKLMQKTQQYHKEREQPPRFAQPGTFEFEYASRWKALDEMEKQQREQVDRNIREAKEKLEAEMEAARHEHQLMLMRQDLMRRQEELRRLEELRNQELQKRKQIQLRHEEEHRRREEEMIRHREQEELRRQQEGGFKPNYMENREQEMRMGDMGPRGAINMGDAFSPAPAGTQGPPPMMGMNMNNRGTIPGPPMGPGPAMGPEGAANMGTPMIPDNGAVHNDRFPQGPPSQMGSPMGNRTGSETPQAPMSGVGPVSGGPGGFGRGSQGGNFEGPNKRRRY

[17] = target: peroxisome proliferator-activated receptor γ, endogenous (mouse (endogenous in cultured cortical neurons)) (UniProt P37238); experiment: as above
[18] = target: T5, splicing factor proline/glutamine-rich, endogenous (mouse (endogenous in cultured cortical neurons)) (UniProt Q8VIJ6); experiment: as above
T5 sequence: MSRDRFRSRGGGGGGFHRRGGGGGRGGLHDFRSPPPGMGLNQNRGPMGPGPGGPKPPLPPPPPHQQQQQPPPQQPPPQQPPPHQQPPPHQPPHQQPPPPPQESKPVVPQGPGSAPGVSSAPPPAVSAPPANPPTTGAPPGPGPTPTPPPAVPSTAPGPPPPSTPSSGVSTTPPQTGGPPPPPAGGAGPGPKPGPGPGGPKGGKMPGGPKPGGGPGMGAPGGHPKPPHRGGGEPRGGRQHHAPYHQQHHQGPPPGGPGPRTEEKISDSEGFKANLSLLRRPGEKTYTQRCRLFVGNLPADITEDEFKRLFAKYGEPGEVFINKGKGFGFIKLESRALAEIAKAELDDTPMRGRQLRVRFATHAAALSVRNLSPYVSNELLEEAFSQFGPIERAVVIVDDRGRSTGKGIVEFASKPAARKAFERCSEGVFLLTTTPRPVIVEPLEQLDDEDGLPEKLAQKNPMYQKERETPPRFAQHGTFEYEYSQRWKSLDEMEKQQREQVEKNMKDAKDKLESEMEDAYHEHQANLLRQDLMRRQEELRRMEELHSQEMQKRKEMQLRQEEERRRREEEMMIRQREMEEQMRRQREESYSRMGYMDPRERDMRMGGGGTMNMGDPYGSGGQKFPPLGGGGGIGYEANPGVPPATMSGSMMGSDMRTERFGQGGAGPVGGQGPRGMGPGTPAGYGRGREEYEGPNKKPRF

[19] = target: synaptotagmin 1, endogenous (mouse (endogenous in cultured cortical neurons)) (UniProt P46096); experiment: as above
[20] = target: T6, vitamin D receptor, endogenous (mouse (endogenous in cultured cortical neurons)) (UniProt P48281); experiment: as above
T6 sequence: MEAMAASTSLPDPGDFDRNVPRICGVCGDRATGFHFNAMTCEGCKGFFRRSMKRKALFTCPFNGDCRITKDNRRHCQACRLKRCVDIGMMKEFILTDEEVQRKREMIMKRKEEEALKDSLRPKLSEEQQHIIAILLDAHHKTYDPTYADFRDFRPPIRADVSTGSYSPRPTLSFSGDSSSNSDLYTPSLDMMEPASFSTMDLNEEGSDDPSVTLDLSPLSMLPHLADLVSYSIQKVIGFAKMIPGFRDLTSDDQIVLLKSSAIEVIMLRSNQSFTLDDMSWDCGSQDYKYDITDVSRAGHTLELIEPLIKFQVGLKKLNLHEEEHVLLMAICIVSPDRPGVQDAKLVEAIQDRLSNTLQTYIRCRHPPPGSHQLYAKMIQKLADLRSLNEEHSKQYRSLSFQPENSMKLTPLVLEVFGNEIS

cell adhesion molecule L1, endogenous in cortical neurons (from UniProt P11627 20-1260)
binding [1]: binds
binding [2]: binds
binding [3]: binds
binding [4]: binds
binding [5]: binds
binding [6]: binds
binding [7]: binds
binding [8]: binds
binding [9]: binds
binding [10]: no binding
binding [11]: no binding
binding [12]: no binding
binding [13]: binds
binding [14]: binds
binding [15]: binds
binding [16]: binds
binding [17]: binds
binding [18]: binds
binding [19]: binds
binding [20]: binds
